# Source: the supplement of paper PMC10037445
# Where “and” joins values, the source holds several entries; their conditions need not be identical. Equal values may be shown once. Over roughly 2,900 compounds, “IRF Lucia reporter activity, fold change vs agonist alone” has its median near 0.9; the highest 2% begin near 2.8. Some of the results follow.
# Legend:
# RAW-Dual [1] = assay: IRF Lucia reporter activity, fold change vs agonist alone; cytotoxicity flag (confluency mask): not cytotoxic; higher = enhanced IRF activity
# Method in brief: (§1)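 RAW-Dual macrophages (50,000 cells/well in DMEM, 384-well plates) received 50 nL of library stock by pin tool, then a PRR agonist 1 h later, and were kept at 37 °C, 5% CO2. After 20 hours, supernatant was read for IRF by QuantiLuc luminescence and for NF-κB by QuantiBlue absorbance at 620 nm. Reporter activity is fold change over agonist-alone wells. Cytotoxic wells had IncuCyte confluency below 70% of agonist controls in both mask sets.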
# RAW-Dual [2] = assay: IRF Lucia reporter activity, fold change vs agonist alone; higher = enhanced IRF activity; conditions: agonist: MPLA (TLR4) […]
# Method in brief: as §1
# RAW-Dual [3] = assay: IRF Lucia reporter activity, fold change vs agonist alone; cytotoxicity flag (confluency mask): cytotoxic (confluency <70% of control); higher = enhanced IRF activity
# Method in brief: as §1
# [4] = agonist: 3'3'-cGAMP (STING) 10 ug/mL
# [5] = library stock concentration (final ~1000-fold dilution): 10 mM, cytotoxicity flag (confluency mask): not cytotoxic
# [6] = library stock concentration (final ~1000-fold dilution): 10 mM, cytotoxicity flag (confluency mask): cytotoxic (confluency <70% of control)
smiles,measurement,setting,value
Cl.O=C1CN2Cc3c(ccc(Cl)c3Cl)NC2=N1 (library stock concentration (final ~1000-fold dilution): 10 mM),IRF Lucia reporter activity,RAW-Dual [1]; [4],1.05
same,IRF Lucia reporter activity,RAW-Dual [1]; agonist: LPS (TLR4) 0.1 ug/mL,1.04
Cl.O=C1CN2Cc3c(ccc(Cl)c3Cl)NC2=N1,IRF Lucia reporter activity,RAW-Dual [2]; [5],1.08
COc1ncc(-c2cc(-c3ncc(CN4CC(C)OC(C)C4)o3)c3cn[nH]c3c2)cc1NS(C)(=O)=O (stereo unspecified) (library stock concentration (final ~1000-fold dilution): 10 mM),IRF Lucia reporter activity,RAW-Dual [3]; [4],0.865
same,IRF Lucia reporter activity,RAW-Dual [3]; agonist: LPS (TLR4) 0.1 ug/mL,4.5
Cc1cc(-c2ccccc2)nnc1NCCN1CCOCC1.Cl.Cl,IRF Lucia reporter activity,RAW-Dual [2]; [5],0.633
Cc1cc(-c2ccccc2)nnc1NCCN1CCOCC1.Cl.Cl (library stock concentration (final ~1000-fold dilution): 10 mM),IRF Lucia reporter activity,RAW-Dual [1]; [4],1.02
same,IRF Lucia reporter activity,RAW-Dual [1]; agonist: LPS (TLR4) 0.1 ug/mL,1.04
CC(C)=CCC[C@@H](C)CCO (library stock concentration (final ~1000-fold dilution): 10 mM),IRF Lucia reporter activity,RAW-Dual [1]; [4],1.18
same,IRF Lucia reporter activity,RAW-Dual [1]; agonist: LPS (TLR4) 0.1 ug/mL,1.1
CCC(Nc1ncnc2[nH]cnc12)c1nc2cccc(F)c2c(=O)n1-c1ccccc1 (stereo unspecified),IRF Lucia reporter activity,RAW-Dual [2]; [5],1.08
CCC(Nc1ncnc2[nH]cnc12)c1nc2cccc(F)c2c(=O)n1-c1ccccc1 (stereo unspecified) (library stock concentration (final ~1000-fold dilution): 10 mM),IRF Lucia reporter activity,RAW-Dual [1]; [4],0.775
same,IRF Lucia reporter activity,RAW-Dual [1]; agonist: LPS (TLR4) 0.1 ug/mL,0.921
COc1ccc(C2CNC(=O)C2)cc1OC1CCCC1 (stereo unspecified),IRF Lucia reporter activity,RAW-Dual [2]; [5],0.784
COc1ccc(C2CNC(=O)C2)cc1OC1CCCC1 (stereo unspecified) (library stock concentration (final ~1000-fold dilution): 10 mM),IRF Lucia reporter activity,RAW-Dual [1]; [4],1.03
same,IRF Lucia reporter activity,RAW-Dual [1]; agonist: LPS (TLR4) 0.1 ug/mL,0.987
O=c1c(O)c(-c2ccc(O)cc2O)oc2cc(O)cc(O)c12 (library stock concentration (final ~1000-fold dilution): 10 mM),IRF Lucia reporter activity,RAW-Dual [1]; [4],0.43
same,IRF Lucia reporter activity,RAW-Dual [1]; agonist: LPS (TLR4) 0.1 ug/mL,0.626
Cc1ccccc1C(OCCN(C)C)c1ccccc1.O=C(O)CC(O)(CC(=O)O)C(=O)O (stereo unspecified) (library stock concentration (final ~1000-fold dilution): 10 mM),IRF Lucia reporter activity,RAW-Dual [1]; [4],0.699
same,IRF Lucia reporter activity,RAW-Dual [1]; agonist: LPS (TLR4) 0.1 ug/mL,0.813
Cc1ccccc1C(OCCN(C)C)c1ccccc1.O=C(O)CC(O)(CC(=O)O)C(=O)O (stereo unspecified),IRF Lucia reporter activity,RAW-Dual [2]; [5],1.01
O=C(O)C=Cc1ccc(Cn2ccnc2)cc1 (library stock concentration (final ~1000-fold dilution): 10 mM water),IRF Lucia reporter activity,RAW-Dual [1]; [4],1.4
same,IRF Lucia reporter activity,RAW-Dual [1]; agonist: LPS (TLR4) 0.1 ug/mL,1.03
O=C(O)C=Cc1ccc(Cn2ccnc2)cc1,IRF Lucia reporter activity,"RAW-Dual [2]; library stock concentration (final ~1000-fold dilution): 10 mM water, cytotoxicity flag (confluency mask): not cytotoxic",1.33
CC(=O)Nc1nc(C)c(-c2ccc(Cl)c(S(=O)(=O)NCCO)c2)s1 (library stock concentration (final ~1000-fold dilution): 10 mM),IRF Lucia reporter activity,RAW-Dual [1]; [4],0.0873
same,IRF Lucia reporter activity,RAW-Dual [1]; agonist: LPS (TLR4) 0.1 ug/mL,0.813
CC(=O)Nc1nc(C)c(-c2ccc(Cl)c(S(=O)(=O)NCCO)c2)s1,IRF Lucia reporter activity,RAW-Dual [2]; [5],0.756
Cl.OC(c1cc(C(F)(F)F)nc2c(C(F)(F)F)cccc12)C1CCCCN1 (stereo unspecified),IRF Lucia reporter activity,RAW-Dual [2]; [6],1.67
Cl.OC(c1cc(C(F)(F)F)nc2c(C(F)(F)F)cccc12)C1CCCCN1 (stereo unspecified) (library stock concentration (final ~1000-fold dilution): 10 mM),IRF Lucia reporter activity,RAW-Dual [3]; [4],0.49
same,IRF Lucia reporter activity,RAW-Dual [3]; agonist: LPS (TLR4) 0.1 ug/mL,1.58
COc1ccc2cc(C(C)C(=O)O)ccc2c1 (stereo unspecified) (library stock concentration (final ~1000-fold dilution): 10 mM),IRF Lucia reporter activity,RAW-Dual [1]; [4],0.987 and 1.02
same,IRF Lucia reporter activity,RAW-Dual [1]; agonist: LPS (TLR4) 0.1 ug/mL,1.13 and 0.985
Cc1nccn1CC1CCc2c(c3ccccc3n2C)C1=O.Cl.O.O (stereo unspecified),IRF Lucia reporter activity,RAW-Dual [2]; [6],0.98
Cc1nccn1CC1CCc2c(c3ccccc3n2C)C1=O.Cl.O.O (stereo unspecified) (library stock concentration (final ~1000-fold dilution): 10 mM),IRF Lucia reporter activity,RAW-Dual [3]; [4],0.976
same,IRF Lucia reporter activity,RAW-Dual [3]; agonist: LPS (TLR4) 0.1 ug/mL,1.11
COc1cc(C=CC(=O)OCC[N+](C)(C)C)cc(OC)c1O (library stock concentration (final ~1000-fold dilution): 10 mM),IRF Lucia reporter activity,RAW-Dual [1]; [4],0.894
same,IRF Lucia reporter activity,RAW-Dual [1]; agonist: LPS (TLR4) 0.1 ug/mL,1.04
Cc1ccc(CN(CC(O)COc2cccc3[nH]ccc23)C(C)(C)C)cc1 (stereo unspecified) (library stock concentration (final ~1000-fold dilution): 10 mM),IRF Lucia reporter activity,RAW-Dual [3]; [4],0.837
same,IRF Lucia reporter activity,RAW-Dual [3]; agonist: LPS (TLR4) 0.1 ug/mL,1.9
Cl.Cl.NC1(c2ccc(-c3nc4ccn5c(=O)[nH]nc5c4cc3-c3ccccc3)cc2)CCC1,IRF Lucia reporter activity,RAW-Dual [2]; [5],2.08
Cl.Cl.NC1(c2ccc(-c3nc4ccn5c(=O)[nH]nc5c4cc3-c3ccccc3)cc2)CCC1 (library stock concentration (final ~1000-fold dilution): 10 mM),IRF Lucia reporter activity,RAW-Dual [1]; [4],1.29
same,IRF Lucia reporter activity,RAW-Dual [1]; agonist: LPS (TLR4) 0.1 ug/mL,0.181
O=c1cc(-c2ccc(O)cc2)oc2cccc(O)c12 (library stock concentration (final ~1000-fold dilution): 10 mM),IRF Lucia reporter activity,RAW-Dual [1]; [4],0.167
same,IRF Lucia reporter activity,RAW-Dual [1]; agonist: LPS (TLR4) 0.1 ug/mL,0.482
COc1cc(C(N)=O)nc(-c2cccc(C#C[C@]3(O)CCN(C)C3=O)c2)c1 (library stock concentration (final ~1000-fold dilution): 10 mM),IRF Lucia reporter activity,RAW-Dual [1]; [4],0.0732
same,IRF Lucia reporter activity,RAW-Dual [1]; agonist: LPS (TLR4) 0.1 ug/mL,0.256
